Hit rate of the full screen: of about 150,000 compounds, about 540 (0.36%) showed an effect of 50% or more. The list shows a part of the results.

The test system of the test is Plasmodium falciparum. As to the kind of experiment: Primary screen in NF54 nanoGlo assay, in single point, at 2uM, 72h; a lower Z score goes with more inhibition. Format: functional, Erythrocyte. The settings on record: timepoint 72 hour.
Broadly, the % Inhibition is the relative decrease from the control value, in per cent. Consider `Cc1ccc(NS(=O)(=O)c2ccc(NC(=O)c3ccsc3)cc2)cc1C`, for which the “% Inhibition” value was -11% and the Z score came out at 0.98.

As for `CC(C)C(=O)N1CCCC(C(=O)NC(c2nc(-c3nnc[nH]3)no2)C(C)(C)C)C1` (stereo not drawn), the “% Inhibition” value was -7% and the Z score stood at 0.71.

Consider `O=C(N[C@H]1CCO[C@@H]1c1cc[nH]n1)c1cnc2ccsc2c1`, for which the “% Inhibition” value is -4% and the Z score came out at 0.67.

Take `Cc1cc(C)c(C(=O)N2CC(CN3C(=O)CCC3=O)C2)c(C)c1`: the “% Inhibition” value was -21% and the Z score was 2.64.

For the molecule `Cc1[nH]c(=O)n(Cc2ccccc2)c(=O)c1CC(=O)O`, the “% Inhibition” value was -1% and the Z score is recorded as 0.13.

Take `COCCNC(=O)N1CCCC[C@@H]1C`: the “% Inhibition” value was determined as 2% and the Z score is -0.37.

With `O=C1CCN(Cc2ccc3c(c2)CCO3)CCCCCCN1`, the “% Inhibition” value is -4% and the Z score turned out to be 0.71.

As to `COc1ccc(Br)c([C@H](CO)N(C)C(=O)CC#N)c1`, the “% Inhibition” value is -4% and the Z score is 0.73.

As to `Cc1nn(-c2ccc(Cl)cc2)cc1C(=O)NC1(C)CCOCC1`, the “% Inhibition” value was -8% and the Z score is given as 1.52.

Take `O=C(c1ccc(Cl)c(F)c1)N1CCN2CCC[C@H]2C1`: the “% Inhibition” value is recorded as -2% and the Z score worked out at 0.42.

As for `Cc1c(CC(=O)N2CC(O)C2)c2c(n1Cc1ccccc1F)CCCC2=O`, the “% Inhibition” value was -10% and the Z score was 1.6.

With `O=C(Nc1ccc(-c2cn3c(n2)CCCC3)cc1)[C@@H]1CC=CCC1`, the “% Inhibition” value is -11% and the Z score is 0.96.

As for `CC(C)[C@](C)(NCc1ncc(Cl)s1)C(N)=O`, the “% Inhibition” value worked out at 4% and the Z score is listed as -0.7.

As for `Cc1[nH]ccc1C(=O)N1CCN(c2ccc(C(=O)O)cc2)CC1`, the “% Inhibition” value was found to be 2% and the Z score is -0.29.

Turning to `C[C@H](NC(=O)CCc1csc(N)n1)c1nc2c(s1)CCCC2`, the “% Inhibition” value is reported as -10% and the Z score amounted to 1.53.

Regarding `Cc1cc(OC(F)F)c(C(=O)NC(C)CCC2CCCO2)s1` (stereo not drawn), the “% Inhibition” value is given as 43% and the Z score was -4.11.

`C[C@H]1CCCN(c2ncnc(Oc3ccc(F)cc3)c2N)C1`: the “% Inhibition” value is given as 5% and the Z score was -0.71.

With `Cc1ccc(-c2noc(-c3ccccc3S(=O)(=O)NCc3ccc(N(C)C)cc3)n2)cc1`, the “% Inhibition” value is reported as -5% and the Z score was determined as 0.87.

For `CN(C)S(=O)(=O)N1C[C@H]2CC[C@@H](C1)N(C(=O)Cc1cccc(O)c1)C2`, the “% Inhibition” value is listed as 0% and the Z score came to 0.

For `CC1CC(CN(C)Cc2cnn(C)c2)CCN1C(=O)OC(C)(C)C` (stereo not drawn), the “% Inhibition” value was found to be 5% and the Z score is reported as -0.68.

On to `CC1CC1C(=O)Nc1cc(F)ccc1NC(=O)c1ccccn1` (stereo not drawn), for which the “% Inhibition” value turned out to be 34% and the Z score is -4.94.

As to `CC(C)(C)N[C@H]1CC(=O)N(c2ccc3c(c2)OCO3)C1=O`, the “% Inhibition” value is listed as -3% and the Z score is on record as 0.51.

As for `O=S1(=O)C[C@H](NC2CCCCCC2)[C@@H](S(=O)(=O)c2cccs2)C1`, the “% Inhibition” value turned out to be 1% and the Z score is -0.17.

Regarding `O=C(CC1CCC(F)(F)CC1)Nc1ccc2c(c1F)CCNC2`, the “% Inhibition” value is reported as -13% and the Z score is listed as 1.83.

Take `Cc1cc(=O)c(C(=O)NCCc2ccccn2)c(Cc2cccc(F)c2)n1CCCN1CCOCC1`: the “% Inhibition” value stood at 1% and the Z score is -0.07.

Regarding `Cc1nn(C)c(C)c1CCCN[C@@H](C)c1cccc(O)c1`, the “% Inhibition” value worked out at 30% and the Z score is -0.4.

Consider `COc1ccccc1-c1n[nH]cc1CN1CCC[C@H](C(=O)NCc2ccccc2)CCNC(=O)CC1`, for which the “% Inhibition” value is reported as -16% and the Z score stood at 2.09.

`COc1ccc(-c2c[n+]3ccccc3c(=O)[nH]2)cc1`: the “% Inhibition” value is given as -18% and the Z score is 2.11.

With `C[C@@H](CCCC(C)(C)O)CCN1CCCNC(=O)C1`, the “% Inhibition” value turned out to be 1% and the Z score is given as -0.24.

Regarding `COc1ccc(CCNC(=O)CN(C)CCc2ccc(OC)c(OC)c2)cc1OC`, the “% Inhibition” value stood at 3% and the Z score is recorded as -0.46.

Regarding `CC(C)n1c(CCNC(=O)Cc2ccccc2F)nc2cccnc21`, the “% Inhibition” value is -7% and the Z score is 1.18.

For `COc1cc(NC(=O)c2ccc(Oc3ccnc(-c4ccc(C)cc4)n3)cc2)cc(OC)c1`, the “% Inhibition” value was -11% and the Z score was found to be 1.48.

Consider `Cc1cnc(NC(=O)[C@@H]2Cc3ccccc3O2)s1`, for which the “% Inhibition” value was -10% and the Z score was determined as 1.86.

Regarding `COc1ccc(Cl)cc1C(=O)NC(Cc1ccccn1)[C@H]1C[C@@H](O)C1` (stereo partly drawn), the “% Inhibition” value is -2% and the Z score stood at 0.28.

Regarding `COc1cc(C(=O)[C@@H]2CC(=O)Nc3[nH]nc(C)c32)ccc1F`, the “% Inhibition” value is -7% and the Z score is 0.91.

For the molecule `Cc1nc(C(=O)N2CCC(c3c(C)[nH]c4ccccc34)CC2)no1`, the “% Inhibition” value was found to be 23% and the Z score was -2.6.

Turning to `N#CCn1cccc1-c1nc(-c2ccncc2)no1`, the “% Inhibition” value was -4% and the Z score was determined as 0.69.

In the case of `COc1cccc2c1OC1(C)CC2C(S(=O)(=O)c2ccc(Cl)cc2)C(=O)N1` (stereo not drawn), the “% Inhibition” value is reported as -3% and the Z score is recorded as 0.53.

As for `Cc1ccc(Cl)c(NC(=O)NC(C)(C)CCS(C)(=O)=O)c1`, the “% Inhibition” value was 11% and the Z score is -0.97.

In the case of `CCc1ccc(Cn2nc(C)nc2[C@]2(C)CCCN2)cc1`, the “% Inhibition” value is -15% and the Z score is recorded as 2.95.

For the molecule `CCCc1cnc(C)nc1-c1cc(NCC(=O)O)nc2[nH]ccc12`, the “% Inhibition” value is listed as -17% and the Z score is recorded as 1.91.

For `Cc1n[nH]c(C)c1[C@@H](NC(N)=O)c1ccco1`, the “% Inhibition” value was 0% and the Z score is on record as 0.02.

Regarding `CC(C)c1cc(-c2nc([C@H]3CCC(=O)NC3)no2)n[nH]1`, the “% Inhibition” value was -10% and the Z score came to 1.48.

Turning to `CCn1ncc(NC(=O)c2ccc(Cl)cc2)c(N2CCOCC2)c1=O`, the “% Inhibition” value was -8% and the Z score stood at 1.61.

Turning to `CCN1CCN(C2CN(S(=O)(=O)c3cc(C)cc(F)c3)C2)CC1`, the “% Inhibition” value came out at 3% and the Z score is given as -0.47.

Consider `O=C(COC1CCCC1)NC(c1ccc(F)cc1)C1CCCO1` (stereo not drawn), for which the “% Inhibition” value is -10% and the Z score amounted to 1.05.

For `COc1cc(C(=O)N2CCC(c3noc(-c4cccc(F)c4)n3)CC2)cc(OC)c1OC`, the “% Inhibition” value was -9% and the Z score turned out to be 1.22.

Consider `CC(C)(C)c1nc(C#N)c(NC[C@@H](c2ccco2)N2CCOCC2)o1`, for which the “% Inhibition” value is given as -4% and the Z score came out at 0.56.

Turning to `CN1CC2(CCN(Cc3ccc(C(F)(F)F)cc3)CC2)C[C@H]1C(=O)N1CCOCC1`, the “% Inhibition” value amounted to 13% and the Z score was -1.96.

As to `Cn1cc(-c2nccnc2CNC(=O)c2cncc(F)c2)cn1`, the “% Inhibition” value was -14% and the Z score was 1.63.

As to `Cc1nc(NC(=O)c2cccnc2OCC(F)F)cc(C2CC2)n1`, the “% Inhibition” value is on record as -5% and the Z score worked out at 0.57.

For `CC(CN1CCS(=O)(=O)C(C)C1)c1cccc(Cl)c1` (stereo not drawn), the “% Inhibition” value is given as 4% and the Z score is listed as -0.49.

On to `CC(C)C[C@](C)(NCC(=O)N1CCC(C)CC1)C(N)=O`, for which the “% Inhibition” value amounted to 5% and the Z score is given as -0.92.

For `CCCN(Cc1c(-c2ccccc2)noc1N(C)C(C)C)C(=O)c1ccc(F)cc1`, the “% Inhibition” value is listed as -3% and the Z score is reported as 0.31.

These data come from ChEMBL document CHEMBL4888484, “Replenishing the malaria drug discovery pipeline: Screening and hit evaluation of the MMV Hit Generation Library 1 (HGL1) against asexual blood stage Plasmodium falciparum ,using a nano luciferase reporter read-out” (2022).
